In the RNAGym collection of RNA variant scans (doi:10.1073/pnas.2313332121):
Variants at the background level are over-represented here.

B1: TPR 5TU (parent)
chain: GGAUCUUCUCGAUCUAACAAAAAAGACAAAUCUGCCACAAAGCUUGAGAGCAUCUUCGGAUGCAGAGGCGGCAGCCUUCGGUGGCGCGAUAGCGCCAACGUUCUCAACUAUGACACGCAAAACGCGUGCUCCGUUGAAUGGAGUUUAUCAUG

Variants of: B1
Assay: polymerase ribozyme fitness, log enrichment relative to wild type (log ratio); higher = more active; in vitro selection for triplet polymerase activity
How it was run: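 Fitness measures genotype enrichment against wild-type enrichment on a logarithmic scale, with inverse-variance-weighted averaging of replicates. The logarithm is base 2, and genotypes were kept only with ≥10 input reads and ≥1 read per output in Illumina sequencing. The sequenced libraries came from one triplicate in vitro selection round, including frozen incubation at −7 °C, of PCR-built, transcribed mutant libraries of each subunit of a heterodimeric triplet polymerase ribozyme.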

Polymerase ribozyme fitness (log ratio), ≤ -4.2:
C36A U44A G62C C93U U135G U139C U144A
C36A U45A U61A C87U A97C G126A
C36A U53A U55A C87U
C36A U55A C63G C96U
C36A U55A G80U A147G A150C U151A
C36A U55G U101A
C36A U56A C95U A107C A137G G141A
C36A U61A U145A U148C
C36G A37C A73U U78G C118A U145C
C36G A41U A66G A106G U144C U148C
C36G A52C A64C C76U C96G C131U U139G U148G
C36G A91U G92U U101G C125A U134G U135G
C36G A98U U109G C132A
C36G C38U C85G A89C G92C G126U G136C A147C
C36G C51U U61A G81U G86A C131G
C36G C54A C93G U146C A150U
C36G C54U G92A A110G G143A
C36G C69G U78C
C36G C75G G136C
C36G C85A A113U
C36G C87U A106U
C36G C87U C149A
C36G C93U U146A
C36G C105G A119U A147G
C36G G46C U102G C132A A142C U145A
C36G G48C U102A U146G
C36G G58U G59A C93U A107U U148C
C36G G62A G74C C96U A98C A115U G124C C149U
C36G G65C A98G G128A
C36G G80U C85U C87A U109G U139C A142G
C36G G81C C87A A107G C108U A110C
C36G G94C C96U A150U
C36G U44G G71U C96A C108G G140C
C36G U45A G50C A52C C93G C118U G133C
C36G U45G G59C A66G U109G G152U
C36G U55C U61G A97G
C36G U56A C69G U139G A142U
C36G U144C
C36U A37G U53A C54U C87G
C36U A37U G83U U135A
C36U A37U U56A A91C C116G
C36U A39C C69G G84A C105G C108A
C36U A39C G50A C87A C96G A137U G141A
C36U A39C G94C A115G
C36U A39G G68A G81A C87U C93G A107C A110C A119U
C36U A39U A52U U78G G83U A91G
C36U A40G C108G G140A
C36U A40U A41U C54U G58A G67A C93A C114U G141A U144G
C36U A41C A49U G50C G58U C93U A122G
C36U A41C G42C C85U U146G
C36U A41C G42C G88U C96G
C36U A47C U82G C96G G128U
C36U A49G A66U G83A C85G G88A C114U U146G
C36U A52C A106U
C36U A52C C72A C85G C95G
C36U A52C U55G G58C A64C C87A
C36U A52G U61A C95A A122U U144A
C36U A60C C63U C103G
C36U A60G C87A G88C G141C
C36U A64G G140A A142C
C36U A66G G112A A142U
C36U A66U A120C U144G
C36U A66U G88A U109A C129G
C36U A91U
C36U A91U C125U
C36U A107G U151A
C36U A138C
C36U C38A A91U C103A C116A
C36U C43U U90A C108U
C36U C51A U55A
C36U C51U U55A G68C C72U A107U G126U G140U
C36U C54A C95G C108U U109C C116U
C36U C54U A64C C85G G88A C105U
C36U C63U C96U A138C U146A U148C
C36U C63U G65A G74A G143C U144C
C36U C75G C96G A121U
C36U C79G
C36U C79G C93A A107G
C36U C85G C108U C125A
C36U C85G G152U
C36U C85U A98U G126A G141A U146A A147C
C36U C85U C95A G133A
C36U C87A A91U C99A
C36U C87A C131U G133A
C36U C87A G117U
C36U C93A C96G U109A
C36U C93A G94U A142G G143A U151G
C36U C93G C103G C129A G141C
C36U C93G G94C A120C A142C U148A
C36U G42A C95A C105G C108U C118A A147C A150C
C36U G48C C95A A98G A119C A150C
C36U G48C U102C U148A
C36U G50C A52G C93U G94C C99A G136A
C36U G58C C116A U127A U134G
C36U G67U G88A
C36U G68A A91C A142U
C36U G74A
C36U G74A A98U U101C U104G G140U
C36U G80A G88C A137C
C36U G80C C85U A115U
C36U G80C U90G
C36U G81A C95G C96A C99U C149G
C36U G83U U102G A138G
C36U G94C A110U A142G
C36U U44A A106G A120U U139A
C36U U44A G58A C85G G117A C118U A120C C149G
C36U U53A G74A A113U
C36U U53G G83C C123G
C36U U55A A60C U146A
C36U U55C C72A G81U G83U U151G
C36U U55G G68U C93G U134A
C36U U56A C95G A142C U148A
C36U U61A G92A C95U U101G
C36U U151G
A37C A39C C95U G133U
A37C A39C U77G A113U
A37C A40C A66U C75G G94U A120G C131G G141A
A37C A40C G58U G94A A97U G143C
A37C A40C G86C C103G G126A
A37C A40G C57U A73C C93U
A37C A40U G83A C93G A142G
A37C A41C C43A A49C U53A G94C
A37C A41C C72A C93U C125U
A37C A41C U53G G59A G84A C103A U145A
A37C A41C U61A G86C A106C G141A
A37C A49C A91G G94A C96U A106G
A37C A49C G62C C99U A138U A142U
A37C A49C G81A G92C A106G C108A A115U A137U G143U
A37C A49C U53A A64G C76U G88U
A37C A49G G92U C93A A98G A115U A120U G128U G143A
A37C A49G U90C A91G G124A U144A
A37C A49U A60C U61G C95U C96A G124U U134A G141C
A37C A52C C76A C96A C99U C118A
A37C A64C C87G C95A
A37C A64U A66G C85A A107G
A37C A66U A106G
A37C A97G U151A
A37C C38A C93A A97U
A37C C43U A73C U77C C93U C116A U135G G136U
A37C C43U G68U A73C C79G C95U U148G
A37C C54A A91U C103G A119U
A37C C54U C72G A91G U109G

Polymerase ribozyme fitness (log ratio), -3.73:
C36U A52G C69U C85U U109G C118A

Polymerase ribozyme fitness (log ratio), -3.78:
C36U C103G

Polymerase ribozyme fitness (log ratio), -3.24:
A37C A52C G84A

Polymerase ribozyme fitness (log ratio), -4.06:
C36G C99G C132U U146C

Polymerase ribozyme fitness (log ratio), -2.84:
C36U A52G G70U G84A

Polymerase ribozyme fitness (log ratio), -3.21:
C36U C114U

Polymerase ribozyme fitness (log ratio), -3.04:
C36G C105U

Polymerase ribozyme fitness (log ratio), -4.18:
C36U G58A A119G G140A

Polymerase ribozyme fitness (log ratio), -2.05:
C36U A142C
C36U C87U G126A

Polymerase ribozyme fitness (log ratio), -2.46:
C36U C85U G124C

Polymerase ribozyme fitness (log ratio), -2.88:
C36U C96U A142C

Polymerase ribozyme fitness (log ratio), -1.24:
A37C A47C

Polymerase ribozyme fitness (log ratio), 0.477:
A37C A97G

Polymerase ribozyme fitness (log ratio), -0.00493:
A37C A52G

Polymerase ribozyme fitness (log ratio), -3.45:
C36G C95U

Polymerase ribozyme fitness (log ratio), -2.93:
A37C A41U C93U C118A

Polymerase ribozyme fitness (log ratio), -3.05:
A37C A41G G86C G92U C95U

Polymerase ribozyme fitness (log ratio), -3.98:
A37C C38U U53A A91G

Polymerase ribozyme fitness (log ratio), -1.63:
C36U G94A C125A

Polymerase ribozyme fitness (log ratio), -3.89:
C36G U130C
C36U C95G C108A
C36U G58U G94A C105U C125U U135C

Polymerase ribozyme fitness (log ratio), -3.22:
C36U U55A A97G A121G U134G

Polymerase ribozyme fitness (log ratio), -3.71:
C36G U56A A98G
